Test results reported in publication PMC7054675.
Results are given in words; binding and its absence hold for the method and conditions named. In cells and extracts the contact can be indirect. Some entries that bind do so weakly or less than the wild type. For some of these results: Sequences can lack the tags named with a protein.

Sequences of proteins named here, by UniProt entry; tags and fusion partners are left off. A change or cut given only in a name is not applied to a line headed by its entry. A line that says so, or that is headed by a name, gives the form on record, which may keep a tag or linker. Residues count along the entry.
UniProt O95166: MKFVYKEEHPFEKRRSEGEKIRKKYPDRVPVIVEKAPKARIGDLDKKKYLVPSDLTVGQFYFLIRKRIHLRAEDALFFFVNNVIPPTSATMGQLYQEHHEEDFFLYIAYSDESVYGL
UniProt Q9BXW4, residues 1-126: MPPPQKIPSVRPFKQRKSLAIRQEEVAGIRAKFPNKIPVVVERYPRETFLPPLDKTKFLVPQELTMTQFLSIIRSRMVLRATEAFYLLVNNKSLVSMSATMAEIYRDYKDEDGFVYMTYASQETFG
UniProt Q2TAZ0: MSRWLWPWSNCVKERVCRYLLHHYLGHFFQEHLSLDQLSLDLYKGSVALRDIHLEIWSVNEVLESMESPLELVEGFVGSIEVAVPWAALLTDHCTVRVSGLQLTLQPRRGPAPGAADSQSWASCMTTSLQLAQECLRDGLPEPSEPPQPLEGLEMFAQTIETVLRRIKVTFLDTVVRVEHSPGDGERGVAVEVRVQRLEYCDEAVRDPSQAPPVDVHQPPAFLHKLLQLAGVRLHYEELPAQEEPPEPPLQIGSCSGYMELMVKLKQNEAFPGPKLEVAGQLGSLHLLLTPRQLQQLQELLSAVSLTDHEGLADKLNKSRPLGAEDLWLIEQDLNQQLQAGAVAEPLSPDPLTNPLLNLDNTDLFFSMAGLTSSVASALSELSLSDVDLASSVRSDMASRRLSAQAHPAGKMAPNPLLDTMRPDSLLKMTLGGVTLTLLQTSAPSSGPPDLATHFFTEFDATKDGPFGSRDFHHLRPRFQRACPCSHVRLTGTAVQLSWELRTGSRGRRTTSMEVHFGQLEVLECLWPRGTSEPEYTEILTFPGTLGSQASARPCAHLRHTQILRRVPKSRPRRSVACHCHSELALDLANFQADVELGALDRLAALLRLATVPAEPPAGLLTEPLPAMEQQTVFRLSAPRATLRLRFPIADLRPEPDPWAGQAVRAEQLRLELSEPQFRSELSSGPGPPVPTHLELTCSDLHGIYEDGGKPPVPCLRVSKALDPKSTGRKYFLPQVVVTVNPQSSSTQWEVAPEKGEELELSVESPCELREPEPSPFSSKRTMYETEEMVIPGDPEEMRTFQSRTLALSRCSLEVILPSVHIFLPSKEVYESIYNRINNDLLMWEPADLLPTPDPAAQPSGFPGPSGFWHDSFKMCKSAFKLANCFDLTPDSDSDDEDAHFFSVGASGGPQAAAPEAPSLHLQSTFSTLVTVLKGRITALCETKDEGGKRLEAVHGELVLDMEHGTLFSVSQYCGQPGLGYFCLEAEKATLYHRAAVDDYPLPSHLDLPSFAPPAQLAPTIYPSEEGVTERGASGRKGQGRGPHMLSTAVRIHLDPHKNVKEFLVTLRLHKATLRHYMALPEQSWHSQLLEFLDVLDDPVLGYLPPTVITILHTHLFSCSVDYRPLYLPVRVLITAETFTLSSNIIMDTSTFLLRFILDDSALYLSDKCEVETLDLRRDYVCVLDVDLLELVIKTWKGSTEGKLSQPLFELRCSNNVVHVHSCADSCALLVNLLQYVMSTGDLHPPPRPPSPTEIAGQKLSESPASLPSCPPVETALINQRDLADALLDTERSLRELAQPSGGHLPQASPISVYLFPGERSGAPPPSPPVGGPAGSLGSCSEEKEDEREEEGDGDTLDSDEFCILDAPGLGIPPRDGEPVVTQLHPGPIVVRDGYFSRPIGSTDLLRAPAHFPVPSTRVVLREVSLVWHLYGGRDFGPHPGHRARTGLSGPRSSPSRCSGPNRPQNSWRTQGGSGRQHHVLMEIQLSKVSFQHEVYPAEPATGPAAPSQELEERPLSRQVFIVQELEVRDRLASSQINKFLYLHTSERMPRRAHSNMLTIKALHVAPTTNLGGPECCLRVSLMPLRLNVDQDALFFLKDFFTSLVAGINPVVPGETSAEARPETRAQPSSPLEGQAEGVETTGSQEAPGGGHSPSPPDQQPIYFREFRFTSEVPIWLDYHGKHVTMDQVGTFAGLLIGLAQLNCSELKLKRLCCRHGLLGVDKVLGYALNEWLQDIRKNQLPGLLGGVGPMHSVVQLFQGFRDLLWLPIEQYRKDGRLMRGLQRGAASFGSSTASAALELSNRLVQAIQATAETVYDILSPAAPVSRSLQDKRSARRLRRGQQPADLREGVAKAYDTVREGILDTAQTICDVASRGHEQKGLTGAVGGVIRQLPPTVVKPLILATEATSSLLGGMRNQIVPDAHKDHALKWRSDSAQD
HA‐tagged ATG2A‐mLIR (FCIL/AAAA) (Q2TAZ0-1, form named): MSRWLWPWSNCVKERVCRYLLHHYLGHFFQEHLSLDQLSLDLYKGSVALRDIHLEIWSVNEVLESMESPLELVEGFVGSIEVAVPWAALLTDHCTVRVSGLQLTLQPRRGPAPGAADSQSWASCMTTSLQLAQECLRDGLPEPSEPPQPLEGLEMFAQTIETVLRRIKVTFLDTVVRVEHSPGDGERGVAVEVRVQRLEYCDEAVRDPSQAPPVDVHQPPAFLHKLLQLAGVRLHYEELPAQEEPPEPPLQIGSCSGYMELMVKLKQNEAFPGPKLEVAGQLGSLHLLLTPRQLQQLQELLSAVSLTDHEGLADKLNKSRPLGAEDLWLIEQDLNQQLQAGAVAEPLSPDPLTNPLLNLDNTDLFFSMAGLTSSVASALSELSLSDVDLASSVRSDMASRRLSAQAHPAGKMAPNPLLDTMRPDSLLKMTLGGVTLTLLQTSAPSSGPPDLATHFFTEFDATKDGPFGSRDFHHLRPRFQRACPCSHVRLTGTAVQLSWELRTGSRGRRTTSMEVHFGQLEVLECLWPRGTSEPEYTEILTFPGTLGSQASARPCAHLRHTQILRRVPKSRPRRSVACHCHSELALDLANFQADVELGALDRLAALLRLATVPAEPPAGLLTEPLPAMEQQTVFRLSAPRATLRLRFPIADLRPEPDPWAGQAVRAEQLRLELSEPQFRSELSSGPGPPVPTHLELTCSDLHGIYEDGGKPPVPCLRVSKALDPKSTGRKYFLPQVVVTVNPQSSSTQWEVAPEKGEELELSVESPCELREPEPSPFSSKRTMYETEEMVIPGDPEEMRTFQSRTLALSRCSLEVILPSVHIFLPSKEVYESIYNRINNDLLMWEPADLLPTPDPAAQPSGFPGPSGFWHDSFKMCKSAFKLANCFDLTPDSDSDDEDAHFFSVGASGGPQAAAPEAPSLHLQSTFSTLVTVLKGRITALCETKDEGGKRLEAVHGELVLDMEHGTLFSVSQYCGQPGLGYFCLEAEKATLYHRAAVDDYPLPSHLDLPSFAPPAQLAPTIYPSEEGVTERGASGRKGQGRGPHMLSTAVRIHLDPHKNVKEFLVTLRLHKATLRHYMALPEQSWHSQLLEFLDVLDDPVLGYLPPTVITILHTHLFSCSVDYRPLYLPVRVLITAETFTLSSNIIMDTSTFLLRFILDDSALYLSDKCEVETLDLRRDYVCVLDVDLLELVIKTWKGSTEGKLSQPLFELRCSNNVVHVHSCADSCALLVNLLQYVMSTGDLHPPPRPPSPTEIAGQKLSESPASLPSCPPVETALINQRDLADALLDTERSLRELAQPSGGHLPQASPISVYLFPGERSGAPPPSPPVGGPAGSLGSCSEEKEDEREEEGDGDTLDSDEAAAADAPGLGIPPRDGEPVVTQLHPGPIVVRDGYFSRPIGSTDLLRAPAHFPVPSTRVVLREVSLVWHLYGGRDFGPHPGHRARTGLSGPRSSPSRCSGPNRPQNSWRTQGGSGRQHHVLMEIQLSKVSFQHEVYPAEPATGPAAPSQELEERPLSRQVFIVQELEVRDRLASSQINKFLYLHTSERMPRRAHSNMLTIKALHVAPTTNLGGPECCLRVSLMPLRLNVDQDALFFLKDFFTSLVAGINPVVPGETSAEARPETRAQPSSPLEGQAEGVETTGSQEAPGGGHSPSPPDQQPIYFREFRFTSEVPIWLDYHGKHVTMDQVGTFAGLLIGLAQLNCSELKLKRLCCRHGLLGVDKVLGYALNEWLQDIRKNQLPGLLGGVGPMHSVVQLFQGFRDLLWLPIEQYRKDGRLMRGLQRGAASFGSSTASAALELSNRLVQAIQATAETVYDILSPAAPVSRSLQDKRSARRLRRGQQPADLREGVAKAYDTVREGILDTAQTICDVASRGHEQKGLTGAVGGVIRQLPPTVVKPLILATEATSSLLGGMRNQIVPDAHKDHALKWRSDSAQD
HA‐tagged ATG2A‐mYFS (YFS/AAA) (Q2TAZ0-1, form named): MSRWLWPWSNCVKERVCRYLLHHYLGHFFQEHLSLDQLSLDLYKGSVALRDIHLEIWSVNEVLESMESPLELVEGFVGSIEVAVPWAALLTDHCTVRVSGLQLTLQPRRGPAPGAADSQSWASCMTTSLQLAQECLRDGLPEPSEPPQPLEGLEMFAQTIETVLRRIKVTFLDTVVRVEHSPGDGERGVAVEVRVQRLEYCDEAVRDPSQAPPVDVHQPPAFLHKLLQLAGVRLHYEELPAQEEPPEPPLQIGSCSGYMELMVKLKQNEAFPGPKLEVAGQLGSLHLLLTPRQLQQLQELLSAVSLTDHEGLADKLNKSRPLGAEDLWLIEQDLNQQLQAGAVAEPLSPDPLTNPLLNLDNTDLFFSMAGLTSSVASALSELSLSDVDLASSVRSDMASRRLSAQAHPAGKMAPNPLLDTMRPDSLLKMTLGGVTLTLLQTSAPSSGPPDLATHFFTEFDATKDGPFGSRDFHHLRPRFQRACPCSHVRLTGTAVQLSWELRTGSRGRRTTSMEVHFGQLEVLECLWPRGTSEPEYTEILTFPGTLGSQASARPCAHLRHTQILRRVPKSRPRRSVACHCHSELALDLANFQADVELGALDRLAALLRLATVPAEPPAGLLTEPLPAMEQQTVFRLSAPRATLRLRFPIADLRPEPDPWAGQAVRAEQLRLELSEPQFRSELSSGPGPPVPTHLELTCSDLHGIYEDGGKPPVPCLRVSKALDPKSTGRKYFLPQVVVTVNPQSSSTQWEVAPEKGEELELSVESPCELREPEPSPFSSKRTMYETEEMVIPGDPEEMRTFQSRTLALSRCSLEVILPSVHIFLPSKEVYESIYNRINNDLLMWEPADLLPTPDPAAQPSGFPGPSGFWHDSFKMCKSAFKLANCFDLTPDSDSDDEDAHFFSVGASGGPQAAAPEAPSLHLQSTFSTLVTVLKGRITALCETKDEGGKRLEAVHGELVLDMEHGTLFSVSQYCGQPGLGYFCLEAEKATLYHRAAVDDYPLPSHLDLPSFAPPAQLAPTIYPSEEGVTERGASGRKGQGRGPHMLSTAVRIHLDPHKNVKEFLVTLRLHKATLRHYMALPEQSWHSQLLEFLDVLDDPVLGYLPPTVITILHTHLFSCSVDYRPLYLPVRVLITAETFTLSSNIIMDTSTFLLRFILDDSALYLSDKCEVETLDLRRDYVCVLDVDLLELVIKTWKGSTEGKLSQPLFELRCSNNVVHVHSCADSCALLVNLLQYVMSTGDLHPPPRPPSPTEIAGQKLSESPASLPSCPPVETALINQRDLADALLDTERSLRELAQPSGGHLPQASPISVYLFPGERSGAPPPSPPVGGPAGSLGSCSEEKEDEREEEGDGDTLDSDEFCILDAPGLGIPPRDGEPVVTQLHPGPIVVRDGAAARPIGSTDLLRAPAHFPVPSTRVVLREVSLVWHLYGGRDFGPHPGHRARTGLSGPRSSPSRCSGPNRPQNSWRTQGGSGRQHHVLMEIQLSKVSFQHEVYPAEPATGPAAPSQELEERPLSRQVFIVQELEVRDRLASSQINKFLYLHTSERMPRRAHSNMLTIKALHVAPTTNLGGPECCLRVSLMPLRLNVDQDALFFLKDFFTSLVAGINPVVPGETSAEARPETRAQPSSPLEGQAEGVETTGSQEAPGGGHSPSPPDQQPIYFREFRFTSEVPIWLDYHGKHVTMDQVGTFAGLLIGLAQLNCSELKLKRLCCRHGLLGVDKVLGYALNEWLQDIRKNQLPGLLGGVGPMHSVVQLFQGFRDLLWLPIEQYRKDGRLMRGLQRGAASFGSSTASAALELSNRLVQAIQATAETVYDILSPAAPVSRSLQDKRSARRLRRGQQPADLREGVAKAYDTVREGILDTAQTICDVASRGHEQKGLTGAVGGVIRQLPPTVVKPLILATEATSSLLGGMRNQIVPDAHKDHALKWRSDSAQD

How the values were obtained:
[1] = target: GFP‐tagged GABARAP (in HEK293T cells) (UniProt O95166); assay: co-IP; Myc-ATG2A or Myc-ATG2B (WT or mLIR) co-expressed with GFP alone, GFP-LC3B or GFP-GABARAP in HEK293T; anti-GFP nanobody agarose; anti-Myc blot
[2] = target: GFP‐tagged GABARAP (in HEK293T cells) (UniProt O95166); assay: co-IP; GFP alone or GFP-tagged ATG8 proteins overexpressed in HEK293T; GFP-TRAP beads; blots for endogenous ATG2A, ATG2B, p62/SQSTM1, WIPI4
GFP‐tagged MAP1LC3A = GFP‐tagged MAP1LC3A (UniProt Q9H492); assay: as above
GFP‐tagged MAP1LC3C = GFP‐tagged MAP1LC3C (UniProt Q9BXW4); assay: as above
GFP‐tagged WIPI4 (WDR45) = target: T1, GFP‐tagged WIPI4 (WDR45) (UniProt Q9Y484); assay: co-IP; GFP alone, GFP-WIPI4 or GFP-WIPI4 with increasing concentrations of mCherry-GABARAP expressed in HEK293T for 24 h; GFP-TRAP beads; blots for endogenous ATG2A and ATG2B
T1 sequence: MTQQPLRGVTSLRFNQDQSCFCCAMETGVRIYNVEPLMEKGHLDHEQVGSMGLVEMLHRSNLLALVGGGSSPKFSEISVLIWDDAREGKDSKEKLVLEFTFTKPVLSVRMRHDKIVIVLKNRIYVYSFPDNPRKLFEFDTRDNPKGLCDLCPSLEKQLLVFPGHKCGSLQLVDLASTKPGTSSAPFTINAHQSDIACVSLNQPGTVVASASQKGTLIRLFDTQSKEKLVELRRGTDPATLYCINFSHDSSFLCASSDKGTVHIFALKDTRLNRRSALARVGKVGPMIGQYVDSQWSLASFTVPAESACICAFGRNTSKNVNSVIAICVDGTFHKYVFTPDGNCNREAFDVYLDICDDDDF

[3] = target: GFP‐tagged GABARAP (in HEK293T cells) (UniProt O95166); assay: co-IP; GFP alone, GFP-GABARAP or GFP-GABARAP with increasing concentrations of mCherry-WIPI4 expressed in HEK293T for 24 h; GFP-TRAP beads; blots for endogenous ATG2A and ATG2B
[4] = target: HA‐tagged ATG2A‐mLIR (FCIL/AAAA) (human) (UniProt Q2TAZ0); assay: co-IP; U2OS ATG2A/B DKO cells stably expressing HA-ATG2A WT, mLIR or mYFS, transfected with GFP-GABARAP, complete medium or starved 2 h (EBSS); anti-HA beads; blots for WIPI4 and GFP
[5] = target: HA‐tagged ATG2A‐mYFS (YFS/AAA) (human) (UniProt Q2TAZ0); assay: as above

binding [1] | binding (GFP‐tagged MAP1LC3A) | binding (GFP‐tagged MAP1LC3C) | binding (GFP‐tagged WIPI4 (WDR45)) | Substance | further results
no binding | – | – | – | Myc‐tagged ATG2B‐mLIR (LIR#6; FCIL/AAAA) (from UniProt Q96BY7 1-2078) | –
– | binds weakly | no binding | binds | ATG2A, endogenous in HEK293T cells (from UniProt Q2TAZ0-1 1-1938) | –
no binding | – | – | – | Myc‐tagged ATG2A‐mutant LIR #5 (mLIR; FCIL/AAAA) (from UniProt Q2TAZ0-1 1-1938) | –

More lines, now with the values behind:

Substance | binding [1] | binding (GFP‐tagged MAP1LC3A) | binding (GFP‐tagged MAP1LC3C) | binding (GFP‐tagged WIPI4 (WDR45)) | further results
Myc‐tagged ATG2B wild type (from UniProt Q96BY7 1-2078) | binds | – | – | – | –
ATG2B, endogenous in HEK293T cells (from UniProt Q96BY7 1-2078) | – | binds weakly | no binding | binds | binding [2]: binds; binding [3]: binds
GFP‐tagged GABARAP (in U2OS ATG2A/B double‐knockout cells) (from UniProt O95166 1-117) | – | – | – | – | binding [4]: no binding; binding [5]: binds
